The values that follow come from patent US12152060B2, “Interleukin-2 variants and methods of uses thereof” (Cugene Inc, priority 2018, dated 2024).

“Also recorded” adds a separate entry of the source.

This test has as its system STAT5 phosphorylation in CD4+ Treg cells (CD4+/Foxp3+/CD25high). Kind of test: STAT5 phosphorylation in CD4+ Treg cells, human PBMC assay by FACS. The format is cell-based. From the text:
Single amino acid substitutions were introduced to IL-2 at positions corresponding to amino acids interacting with receptor subunit(s) β or γ or By. These substitutions were aimed to reduce IL-2 signaling capacity through the intermediate affinity IL-2Rβγ complex and confer signaling specificity from the high affinity IL-2Rαβγ. IL-2 variants containing single amino acid substitutions were examined for their ability to differentially stimulate STAT5 phosphorylation in CD4 positive Treg and Tconv cells. STAT5 is known to be involved in the downstream signaling cascade upon IL-2 binding to the transmembrane IL-2 receptors. The phosphorylation of STAT5 in defined lymphocyte subpopulations was measured using fresh human peripheral blood mononuclear cells (PBMC) and the forkhead transcription factor FOXP3 was used to identify the Treg population in FACS analysis.
Briefly, human PBMC were isolated by Ficoll-Hypaque centrifugation from the buffy coat of a healthy donor. PBMC were starved in serum-free MACS buffer at 4° C. for 1 hour. 2×10^5 PBMC were then treated with serial dilutions of test compounds for 30 min at 37° C. […] Cells were collected by centrifugation, washed, resuspended in FACS buffer, and analyzed by flow cytometry. […] Data are expressed as a percent of pStat5 positive cells in gated population.

B1: P-0419: Fc fusion protein of IL-2 variant L19Y/Q126E; SEQ ID NO: 103 (protein)
chain: [human IgG1 Fc with L234A L235A G237A (EU numbers) cut from this listing]GGGSGGGSAPTSSSTKKTQLQLEHLLYDLQMILNGINNYKNPKLTRMLTFKFYMPKKATELKHLQCLEEELKPLEEVLNLAQSKNFHLRPRDLISNINVIVLELKGSETTFMCEYADETATIVEFLNRWITFSESIISTLT
modifications: Fc fusion; P-0419
On to B1, for which, for the setting “Treg and CD4+ Tconv cells”, the “pSTAT5 activity profile compared with benchmark molecules (in words)” value is “very comparable to that of the Benchmark-1 molecule; also recorded: comparable activity profile to Benchmark-1”. Under “pSTAT5, Treg versus Tconv”, the “window for selective activation of Treg cells over CD4+ Tconv cells (in words)” value is “significantly widened”.
